In PubChem BioAssay AID1468 (National Center for Advancing Translational Sciences (NCATS), 2008):
Out of some 280,000 compounds screened, about 1,100 (0.39%) were called active. The shares of active, inactive and inconclusive entries below differ from those in the screen. The call rests on the fitted dose curve; in most records, active means well fitted inhibition curve with a large enough effect; inconclusive means small, poorly fitted or top-dose-only effect, or effect the other way; inactive means flat fitted curve, though single readings scatter. Potencies of inconclusive entries are left out as doubtful fits.

Target: Microtubule-associated protein tau (Homo sapiens) (UniProt P10636)
Sequence of UniProt P10636 (P10636 whole entry, looked up): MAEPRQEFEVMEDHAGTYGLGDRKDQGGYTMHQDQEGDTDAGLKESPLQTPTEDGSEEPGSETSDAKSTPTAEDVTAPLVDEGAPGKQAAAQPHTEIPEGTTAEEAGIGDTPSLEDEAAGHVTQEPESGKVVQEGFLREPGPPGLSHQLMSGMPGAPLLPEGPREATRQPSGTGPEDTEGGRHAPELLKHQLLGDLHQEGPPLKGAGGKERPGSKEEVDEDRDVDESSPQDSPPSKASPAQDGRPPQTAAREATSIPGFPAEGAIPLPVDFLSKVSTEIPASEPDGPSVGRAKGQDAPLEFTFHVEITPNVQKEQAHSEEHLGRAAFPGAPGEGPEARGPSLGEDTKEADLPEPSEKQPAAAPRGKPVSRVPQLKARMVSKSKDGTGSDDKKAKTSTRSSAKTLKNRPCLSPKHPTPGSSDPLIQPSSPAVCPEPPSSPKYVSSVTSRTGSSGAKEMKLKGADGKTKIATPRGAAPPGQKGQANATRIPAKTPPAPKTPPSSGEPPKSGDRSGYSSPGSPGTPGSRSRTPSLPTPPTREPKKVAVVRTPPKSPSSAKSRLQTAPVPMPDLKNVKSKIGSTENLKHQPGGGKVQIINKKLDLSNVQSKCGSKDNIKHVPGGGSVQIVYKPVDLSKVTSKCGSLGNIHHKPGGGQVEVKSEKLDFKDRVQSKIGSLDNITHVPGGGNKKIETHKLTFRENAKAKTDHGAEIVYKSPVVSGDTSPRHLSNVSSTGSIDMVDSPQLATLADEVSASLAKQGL
Assay: qHTS for Inhibitors of Tau Fibril Formation, Fluorescence Polarization; further: nearly all actives have a fitted effect of over 55% in size
Settings: K18 P301L tau heparin fibrillization, Alexa594 FP, 6 h; series mostly up to 57.7 µM; activity, negative = inhibition: at the top concentration
How it was run: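 Heparin (20 uM) drove fibril formation of recombinant tau K18 P301L, 15 uM unlabeled with 0.24 uM Alexa 594 label, for 6 hr at 37 C in 100 mM sodium acetate pH 7. Fluorescence polarization (555/632 nm) read 1 hr after 30 uM ThT.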
On the % scale 0 is the no-effect control and ±100 the full control effect; potency means the concentration at half of the fitted maximal effect; tags describe the fitted curve by direction and shape.

Row | Compound | Potency | activity, negative = inhibition
1 | CCC(C)(C(=O)NC1CCCC1)N(C(=O)c1ccccn1)c1ccc(C)cc1 (stereo not given) | inconclusive [inhibitor, single point] | 
2 | CCOC(=O)c1c(NC(=O)CC(C)C)sc(C(C)=O)c1C |  | inactive: 2.96%
3 | Cc1nn(C)cc1C1C2=C(CC(C)(C)CC2=O)N(c2ccccc2)C2=C1C(=O)CC(C)(C)C2 | inconclusive [inhibitor, single point] | 
4 | COc1ccc(NC(=O)CCl)cn1 | inconclusive [inhibitor, single point] | 
5 | Cc1ccccc1NC(=O)Cn1c(=O)n(CCC(=O)NCc2ccc3c(c2)OCO3)c(=O)c2sccc21 | inconclusive [inhibitor, single point] | 
6 | CO/N=C/C=C1/N(C)c2ccccc2C1(C)C | inconclusive [inhibitor, single point] | 
7 | Fc1ccc(-c2ccnc(=S)[nH]2)cc1 | inconclusive [inhibitor, single point] | 
8 | O=C1CN(C(=O)c2ccc(S(=O)(=O)N3CCCCC3)cc2)C(c2ccc(F)cc2)c2cc(Br)ccc2N1 (stereo not given) | inconclusive [inhibitor, partial curve, poor fit] | 
9 | CCCCc1nc2c(c3c1C[C@H](C)OC3)CN(C(=O)C1CCCCC1)CC2 |  | inactive: 2.53% [at 11.6 µM]
10 | CSCCC1Nc2ccc(S(=O)(=O)N3CCOCC3)cc2NC1=O (stereo not given) | inconclusive [inhibitor, single point] | 
11 | COCCSc1ccccc1C(=O)Nc1nncs1 |  | inactive: -6.66%
12 | CN1/C(=C\C(=S)Nc2ccccc2)C(C)(C)c2ccccc21 | inconclusive [activator, single point] | 
13 | COc1cccc(-c2cc(C(F)(F)F)n3nc(C)c(-c4ccccc4)c3n2)c1 |  | inactive: -6.73%
14 | Nc1cccc2c1C(=O)N(C(=O)/C=C/c1ccc(F)cc1)C2=O | inconclusive [inhibitor, partial curve] | 
15 | CN1CCC(=NNC(=O)C(=O)NC2CCCCC2)CC1 | inconclusive [inhibitor, full curve, poor fit] | 
16 | CCc1ccccc1N(C)C(=O)c1nn(C)c2c1CSc1ccccc1-2 |  | inactive: -3.02%
17 | CSc1nc(C2CC2)cc(-c2cccs2)c1C#N | inconclusive [inhibitor, single point] | 
18 | COC(=O)c1ccc(Oc2nc3c(c(=O)n(C)c(=O)n3C)n2C(C)C)cc1 |  | inactive: -8.77%
19 | COc1cc(OC)cc(-c2nnc(SCC(=O)N3CCCc4ccccc43)o2)c1 | inconclusive [activator, single point] | 
20 | CC(=O)OCCNc1cc(SCc2ccco2)c2nonc2c1[N+](=O)[O-] | inconclusive [inhibitor, full curve] | 
21 | NC(=O)c1ccsc1NC(=O)COC(=O)Cc1cccc2ccccc12 | inconclusive [inhibitor, single point] | 
22 | COc1ccc(CNc2ccc(-c3ccc(OC)cc3)nn2)cc1 |  | inactive: -7.67%
23 | O=C(Nc1ccccc1-c1nc2ccccc2[nH]1)c1ccc(S(=O)(=O)N2CCCCC2)cc1 | active: 12.6 µM | 

Row | Compound | Potency | activity, negative = inhibition
24 | Oc1c(C(Nc2nc3ccccc3s2)c2ccco2)ccc2cccnc12 (stereo not given) | inconclusive [activator, partial curve] | 
25 | COc1ccc(Cl)cc1-c1nc(-c2ccc(NC(=O)c3cccs3)cc2)no1 | inconclusive [inhibitor, single point] | 
26 | Cc1[nH]c2ccccc2c1CN1CCN(c2ccccn2)CC1 |  | inactive: 9.46%
27 | COC(=O)c1cc2sc(C)cc2n1CC(=O)Nc1cccc(SC)c1 | inconclusive [inhibitor, partial curve, poor fit] | 
28 | CCN(CC)c1ccc(C(=O)OCc2cc(=O)oc3cc(O)ccc23)cc1 | inconclusive [inhibitor, single point] | 
29 | O=[N+]([O-])c1nn(-c2ccc3c(c2)OCCO3)n(O)c1=Nc1ccc(Cl)cc1 | inconclusive [activator, partial curve, poor fit] | 
30 | CN(C)/C=N/C(=S)Nc1ccccc1Cl |  | inactive: -1.81%
31 | Cc1nc2ncnn2c(N2CCN(C(c3ccccc3)c3ccccc3)CC2)c1C |  | inactive: -10.2%
32 | Cc1cccc(NC(=O)CN2C(=O)COc3ccc(S(=O)(=O)Nc4ccccc4)cc32)c1C | inconclusive [inhibitor, single point] | 
33 | CCc1cc(SC#N)cc(C)c1N | inconclusive [inhibitor, partial curve] | 
34 | Cc1[nH]c2ccc(C(=O)NCCc3ccccc3Cl)cc2c1C | inconclusive [activator, partial curve] | 
35 | O=C(c1cc(F)ccc1F)C1CCCN(C(=O)c2ccc(F)cc2Cl)C1 (stereo not given) |  | inactive: 1.26%
36 | COc1ccc(/C=N/Nc2snc(SC)c2C#N)cc1OC | inconclusive [inhibitor, single point] | 
37 | COc1ccc(Nc2cc(C(=O)NCc3ccccc3)c3ccccc3n2)cc1 | inconclusive [activator, single point] | 
38 | O=C(N/N=C/c1ccccc1C(=O)O)c1cccc(S(=O)(=O)Nc2cc(Cl)ccc2Cl)c1 |  | inactive: 3.49%
39 | CCOc1ccc(C(=O)/C=C/c2ccc(OC)c(OC)c2)cc1 |  | inactive: 0.445%
40 | Cc1nn(-c2ccc(N3CCCC3)nn2)c(C)c1CCC(=O)NCc1ccc(F)cc1 |  | inactive: -3.75%
41 | CN(C)Cc1cc(C(C)(C)C)cc(C(C)(C)C)c1O |  | inactive: -2.62%
42 | Cc1cc(C)cc(C(=O)NC(=S)Nc2ccc3c(c2)OCCO3)c1 | inconclusive [inhibitor, partial curve, poor fit] | 
43 | O=C(/C=N/O)NCCCCNC(=O)/C=N/O | inconclusive [inhibitor, full curve, poor fit] | 
44 | CCCCCCOc1ccc(N2C(=O)CC(S/C(N)=N/N=C(\C)c3cccs3)C2=O)cc1 (stereo not given) | inconclusive [inhibitor, partial curve] | 
45 | Cc1ccc(S(=O)(=O)c2nnn3c2nc(NCc2ccc(F)cc2)c2sccc23)cc1C | inconclusive [inhibitor, partial curve] | 
